Read counts are not given, so values of variants with three or more changes are uncertain.

B1: OR4K15 (parent)
chain: GUUAACGGUCAUAGGCCAUGGAAACUAGGAGCACCAUUUCGCUGCCAGUGAAGAAAUGAACAAAGAAAAUCUGGGCCAGGCAGGCAUCAAAAGAAAUAGUCUUGCGCUCAACCAGAAAGUCUGUAAUCAUUUUAAGGGUA

The data set covers variants of B1. The data set is described as follows: self-cleavage, relative activity (ratio to wild type); higher = more cleavage; in vitro, sequencing; the parent is a self-cleaving ribozyme.
On to GUUAACGGUCAUAGGCCAUGGAAACUAGGAGCACCAUUUCGCCGCCAGUGAAGAAAUGAACAAAGAAGAUCUGGGCCAGGCAGGCAUCAAAAGAAAUAGCCUUGCGCUCAACCAGAAAGUCUGUAACCAUUUUAAGGGUA, for which the self-cleavage stood at 2.08.
On to GUUAACGGUCAUAGGCCAUGGAAACUAGGAGCACCAUUUCGCCGCCAGUGAAGAAAUGAACAAAGGAAAUCUGGGCCAGGCAGGCAUCAAAAGAAAUAGUCUUGCGCUCAACCAGAAAGUCUGUAAUCACUUUAAGGGUA, for which the self-cleavage came out at 1.07.
Turning to GUUAACGGUCAUAGGCCAUGGAAACUAGGAGCACCAUUUCGCCGCCAGUGAAGAAAUGAACAAAGAAAAUCUGGGCCAGGCAGGCAUCAAAAGAAGUAGUCUUGCGCUCAACCAGAGAGUCUGUAAUCAUCUUAAGGGUA, the self-cleavage was determined as 1.56.
In the case of GUUAACGGUCAUAGGCCAUGGAAACUAGGAGCACCAUUUCGCCGCCAGUGAAGAAAUGAACAAAGGAAAUCUGGGCCAGGCAGGCAUCAAAUGAAAUAGUCUUGCGCUCAACCAGAAAGUCUGUAAUCAUUUUAAGGGUA, the self-cleavage came to 1.52.
Turning to GUUAACGGUCAUAGGCCAUGGAAACUAGGAGCACCAUUUCGCCGCCAGUGAAGAAAUGAACAAAGAAAAUCUGGGCCAGGCAGGCAUCAAAAGAAAUAGUCUUGCGCUCAGCCAGGAAGUCUGUAAUCAUUUUAAGGGUA, the self-cleavage came to 0.01.
As to GUUAACGGUCAUAGGCCAUGGAAACUAGGAGCACCAUUUCGCCGCCAGUGAAGAAAUGAACAAAGAAAAUCUGGGCCAGGCGGGCAUCAAAAGAAAUAGUCUUGCGCUCAGCCAGAAAGUCUGUAAUCAUUUUAAGGGUA, the self-cleavage was determined as 0.03.
Turning to GUUAACGGUCAUAGGCCAUGGAAACUAGGAGCACCAUUUCGCCGCCAGUGAAGAAAUGAACAAAGUAAAUCUGAGCCAGGCAGGCAUCAAAAGAAAUAGUCUUGCGCUCAACCAGAAAGUCUGUAAUCAUUUUAAGGGUA, the self-cleavage was 0.28.
For the variant GUUAACGGUCAUAGGCCAUGGAAACUAGGAGCACCAUUUCGCCGCCAGUGAAGAAAUGAACAAAGAAGAUCUGGGCCAGGCAGGCAUCAAGGGAAAUAGUCUUGCGCUCAACCAGAAAGUCUGUAAUCAUUUUAAGGGUA, the self-cleavage came out at 1.2.
Consider GUUAACGGUCAUAGGCCAUGGAAACUAGGAGCACCAUUUCGCCGCCAGUGAAGAAAUGAACAAAGAAGAACUGGGCCAGGCAGGCAUCAAAAGAAAUAGCCCUGCGCUCAACCAGAAAGUCUGUAAUCAUUUUAAGGGUA, for which the self-cleavage was found to be 0.85.
For the variant GUUAACGGUCAUAGGCCAUGGAAACUAGGAGCACCAUUUCGCCGCCAGUGAAGAAAUGAACAAAGAAAAUCUGGGCCAGGCAGGCAUCAAAAGAGAUAGUCUUGCGCUCAACCAGAAAGUCUGUAAUCACUUUAAGGGUA, the self-cleavage is 2.01.
Consider GUUAACGGUCAUAGGCCAUGGAAACUAGGAGCACCAUUUCGCCGCCAGUGAAGAAAUGAACAAAGAAAAUCUGGGCCAGGCAGGCAUCAAAAGAGAUAGUCUUGCGCUCAACCAGAAAGUCUGUAAUCAUUUCAAGGGUA, for which the self-cleavage worked out at 2.46.
To GUUAACGGUCAUAGGCCAUGGAAACUAGGAGCACCAUUUCGCCGCCAGUGAAGAAAUGAACAAAGAAAAUCUGGGCCAGGCAGGCAUCAGAAGAAAUAGUCUUGCGCUUAACCAGAAAGUCUGUGAUCAUUUUAAGGGUA belongs 0.08; to GUUAACGGUCAUAGGCCAUGGAAACUAGGAGCACCAUUUCGCCGCCAGUGAAGAAAUGAACAAAGAAAAUCUGGGCCAGGCAGGCAUCAAAAGAGAUAGUCAUGCGCUCAACCAGAAAGUCUGUAAUCAUUUUAAGGGUA, 0.54.
On to GUUAACGGUCAUAGGCCAUGGAAACUAGGAGCACCAUUUCGCCGCCAGUGAAGAAAUGAACAAAGAAAAUCUGGGCCAGGCAGGCAUCAAGAGAAAUAGUCUUGCGCUCAACCAGAAAAUCUGUAAUCAUUUUAAGGGUA, for which the self-cleavage was 1.64.
Turning to GUUAACGGUCAUAGGCCAUGGAAACUAGGAGCACCAUUUCGCCGCCAGUGAAGAAAUGAACAAAGAAAAUCUGGGCCAGGCGGGCAUCAAAAGAAAUAGUCCUGCGCUCAACCAGAAAGUCUGUAAUCACUUUAAGGGUA, the self-cleavage is 0.85.
Turning to GUUAACGGUCAUAGGCCAUGGAAACUAGGAGCACCAUUUCGCCGCCAGUGAAGAAAUGAACAAAGAGAAUCUGGGCCGGGCAUGCAUCAAAAGAAGUAGUCUUGCGCUCAACCAGAAAGUCUGUAAUCAUUUUAAGGGUA, the self-cleavage came out at 0.15.
With GUUAACGGUCAUAGGCCAUGGAAACUAGGAGCACCAUUUCGCCGCCAGUGAAGAAAUGAACAAAGUAAAUCUGGGCCGGGCAGGCAUCAGAAGAAAUAGUCUUGCGCUCAACCAGAAAGUCUGUAAACAUUUUAAGGGUA the figure was 0.15.
Take GUUAACGGUCAUAGGCCAUGGAAACUAGGAGCACCAUUUCGCCGCCAGUGAAGAAAUGAACAAAGAAAAUCUGGGCCAGGCAGGCAUCAAAAGAAGUAGUCUUGCGCUCAACCAGAGAGUCUGUAAUCAUUUUAAGGGUA: the self-cleavage turned out to be 0.78.
Take GUUAACGGUCAUAGGCCAUGGAAACUAGGAGCACCAUUUCGCCGCCAGUGAAGAAAUGAACAAAGAAAAUCUGGGCCAGGCAGGCAUCAAAAGAAGUAGUCUUGCGCUCAACCAGAAAGUCCGUAAUCAUUUUAAGGGUA: the self-cleavage was found to be 0.37.
For GUUAACGGUCAUAGGCCAUGGAAACUAGGAGCACCAUUUCGCCGCCAGUGAAGAAAUGAACAAAGAAAAUCUGGGCCAGGCAGGCAUCAAAAGAAAUAGUCUUGCGCUCAACCAGGAAGUCUGUAGCCAUUUUAAGGGUA, the self-cleavage is 0.1.
In the case of GUUAACGGUCAUAGGCCAUGGAAACUAGGAGCACCAUUUCGCCGCCAGUGAAGAAAUGAACAAAGAAAAUCUGGGCCAGGCAGGCAUCAAAAGAGAUAGUCUUGCGCUCAGCCAGAAGGUCUGUAAUCAUUUUAAGGGUA, the self-cleavage was found to be 0.01.

Source of the values: the RNAGym collection of RNA variant scans (doi:10.7554/elife.90254).
